# Results from PubChem BioAssay AID995 (National Center for Advancing Translational Sciences (NCATS), 2007).
# Screen size: about 72,000 compounds; about 710 (0.99%) were called active. Inconclusive means that the source gave no clear call. Such entries were picked first, then a sample of the others. Calls follow the shape of the dose curve; as a rule, active = well fitted inhibition curve with a large enough effect; inconclusive = small, poorly fitted or top-dose-only effect; inactive = no such curve, though single readings can be large or run the other way. No potency is given beside an inconclusive call; the fits are too rough. More than one record can exist for a structure, and the calls need not agree.
# Experiment: qHTS Assay for Inhibitors of the ERK Signaling Pathway using a Homogeneous Screening Assay; also: nearly all actives have a fitted effect of over 55% in size
# Conditions: HEK293-V1b, vasopressin-stimulated pERK AlphaScreen; activity, negative = inhibition: at 57.5 µM (top of the series) unless noted
# In short: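 HEK293 cells stably expressing V1b receptor, seeded overnight in 1% FBS, were treated with compounds for 30 min at 37C, then stimulated 5 min with 25 nM vasopressin; phospho-ERK read by AlphaScreen SureFire after lysis.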
# % is scaled to controls: 0 for no effect and ±100 for the full control effect; potency is read from the fitted curve at half-maximal effect; tags tell the direction and shape of the fitted curve.
SMILES,"activity, negative = inhibition",Potency
[Cd+2].[Cl-].[Cl-],inactive: -8.76%,–
COC(=O)/C=C\C(=O)N[C@@H]1CC[C@@]2(O)[C@H]3Cc4ccc(O)c5c4[C@@]2(CCN3CC2CC2)[C@@H]1O5,inactive: -14.7%,–
S=C(S)N1CCCC1,–,"inconclusive [inhibitor, partial curve, poor fit]"
Cc1c(C(=O)NCCC2=CCCCC2)oc2ccc(S(=O)(=O)N3CCC4(CC3)OCCO4)cc12,–,"inconclusive [inhibitor, partial curve]"
CN1[C@@H]2CCC[C@H]1CC(=O)C2,–,"inconclusive [inhibitor, partial curve, poor fit]"
O=C(O)c1ccccc1-c1c2cc(Br)c(=O)cc-2oc2[c]([Hg])c(O)c(Br)cc12,–,active: 15.8 µM
CCCC(C)C1C(C#N)=C(N)Oc2c1c(=O)oc1ccccc21 (stereo not drawn),–,"inconclusive [inhibitor, single point]"
N[C@@H](Cn1oc(=O)[nH]c1=O)C(=O)O,–,"inconclusive [inhibitor, single point]"
CCC/C=C(\CCC)C(NP(=O)(c1ccccc1)c1ccccc1)c1ccccc1 (stereo not drawn),–,"inconclusive [inhibitor, single point]"
COc1ccc(CC2c3cc(OC)c(OC)cc3CCN2C)cc1OC (stereo not drawn),–,"inconclusive [inhibitor, partial curve]"
CC(C)CC(N(C)C)C1(c2ccc(Cl)cc2)CCC1 (stereo not drawn),–,"inconclusive [inhibitor, single point]"
NC(N)=Nc1ccc2[nH]c3c(c2c1)C[C@]1(O)[C@@H]2Cc4ccc(O)c5c4[C@]1(CCN2CC1CC1)[C@H]3O5,–,"inconclusive [inhibitor, partial curve]"
COc1cc2c(cc1OC)[C@@H]1C(=O)c3ccc4c(c3OC1CO2)CC(C(C)C)O4 (stereo partly drawn),inactive: -14.8%,–
O=c1[nH]c2ccccc2n1CCCN1CCC(n2c(=O)[nH]c3cc(Cl)ccc32)CC1,–,"inconclusive [inhibitor, single point]"
CC(=NCCN1CCOCC1)c1c(O)n(C2CCCCC2)c(=O)[nH]c1=O,inactive: 11.5%,–
CC(Cc1ccc(O)cc1)NCC(O)c1cc(O)cc(O)c1 (stereo not drawn),–,"inconclusive [inhibitor, full curve, poor fit]"
CCCCCC1C(=O)O[C@H](C)[C@@H](NC(=O)c2cccc(NC=O)c2O)C(=O)OC(C)C1OC(=O)CC(C)C (stereo partly drawn),–,"inconclusive [inhibitor, partial curve]"
Cc1cccc(-n2c(CN3C(=O)c4ccccc4C3=O)nc3ccccc3c2=O)n1,inactive: 12.1%,–
